This is one part of the list.
B1: PhoQ; a variant is named by its letters at X, in order, P23837 (parent)
chain: MKKLLRLFFPLSLRVRFLLATAAVVLVLSLAYGMVALIGYSVSFDKTTFRLLRGESNLFYTLAKWENNKLHVELPENIDKQSPTMTLIYDENGQLLWAQRDVPWLMKMIQPDWLKSNGFHEIEADVNDTSLLLSGDHSIQQQLQEVREDDDDAEMTHSVAVNVYPATSRMPKLTIVVVDTIPVELKSSYMVWSWFIYVLSANLLLVIPLLWVAAWWSLRPIEALAKEVRELEEHNRELLNPATTRELTSLVRNLNRLLKSERERYDKYRTTLTDLTHSLKTPLXXLQXXLRSLRSEKMSVSDAEPVMLEQISRISQQIGYYLHRASMRGGTLLSRELHPVAPLLDNLTSALNKVYQRKGVNISLDISPEISFVGEQNDFVEVMGNVLDNACKYCLEFVEISARQTDEHLYIVVEDDGPGIPLSKREVIFDRGQRVDTLRPGQGVGLAVAREITEQYEGKIVAGESMLGGARMEVIFGRQHSAPKDE

Variants of: B1
Assay: enrichment ratio after two sorts for PhoP signalling (ratio (wild type AVST 3.29)); higher = more functional
Conditions: with PhoP (E. coli)
For TDEY, the enrichment ratio was no more than 0.25.
WNMF gave an enrichment ratio of no more than 0.25.
With ADSV the enrichment ratio was 4.14.
DWKF was tested, and the enrichment ratio was no more than 0.25.
AYKH gave an enrichment ratio of no more than 0.25.
In the case of DYSG, the enrichment ratio is reported as no more than 0.25.
Work on LDCD yielded an enrichment ratio of no more than 0.25.
GHRT was tested, and the enrichment ratio was no more than 0.25.
TPWS gave an enrichment ratio of no more than 0.25.
SHRM was tested, and the enrichment ratio was no more than 0.25.
WRTK was tested, and the enrichment ratio was no more than 0.25.
CSAY showed an enrichment ratio of no more than 0.25.
NDLV showed an enrichment ratio of no more than 0.25.
Work on HVMY yielded an enrichment ratio of no more than 0.25.
In the case of NMPY, the enrichment ratio is reported as no more than 0.25.
Work on YYEF yielded an enrichment ratio of no more than 0.25.
WPQT showed an enrichment ratio of no more than 0.25.
For DHNF, the enrichment ratio was no more than 0.25.
With KQQA the enrichment ratio was no more than 0.25.
Work on TWNG yielded an enrichment ratio of no more than 0.25.
Variant HDKF has an enrichment ratio of no more than 0.25.
HWAN showed an enrichment ratio of no more than 0.25.
KVFW gave an enrichment ratio of no more than 0.25.
QMTE was tested, and the enrichment ratio was no more than 0.25.
In the case of QMYG, the enrichment ratio is reported as no more than 0.25.
With LMHI the enrichment ratio was no more than 0.25.
Work on HSSS yielded an enrichment ratio of no more than 0.25.
Variant ASKS has an enrichment ratio of no more than 0.25.
Work on DRWP yielded an enrichment ratio of no more than 0.25.
Variant MVAV has an enrichment ratio of 11.4.
KADP was tested, and the enrichment ratio was no more than 0.25.
For QKCD, the enrichment ratio was no more than 0.25.
Work on PTQQ yielded an enrichment ratio of no more than 0.25.
With NESR the enrichment ratio was no more than 0.25.
LAPN gave an enrichment ratio of no more than 0.25.
Work on WKQC yielded an enrichment ratio of no more than 0.25.
IFLW gave an enrichment ratio of no more than 0.25.
Work on YIVF yielded an enrichment ratio of no more than 0.25.
With DEMY the enrichment ratio was no more than 0.25.
With WTFM the enrichment ratio was no more than 0.25.
Work on YSFQ yielded an enrichment ratio of no more than 0.25.
Work on RRPP yielded an enrichment ratio of no more than 0.25.
For VPED, the enrichment ratio was no more than 0.25.
Variant NIRL has an enrichment ratio of no more than 0.25.
Work on TQMF yielded an enrichment ratio of 1.83.
In the case of HFMH, the enrichment ratio is reported as no more than 0.25.
Variant QPTR has an enrichment ratio of no more than 0.25.
In the case of LTHK, the enrichment ratio is reported as no more than 0.25.
Variant HLTE has an enrichment ratio of no more than 0.25.
AWEL was tested, and the enrichment ratio was no more than 0.25.
ILHN gave an enrichment ratio of no more than 0.25.
In the case of EMMC, the enrichment ratio is reported as no more than 0.25.
In the case of HSSM, the enrichment ratio is reported as 1.54.
For YWTN, the enrichment ratio was no more than 0.25.
In the case of DGVN, the enrichment ratio is reported as no more than 0.25.
IPPW was tested, and the enrichment ratio was no more than 0.25.
RVPG was tested, and the enrichment ratio was no more than 0.25.
Variant VQLW has an enrichment ratio of no more than 0.25.
EPVM gave an enrichment ratio of no more than 0.25.
ALHL showed an enrichment ratio of no more than 0.25.
PVAG was tested, and the enrichment ratio was no more than 0.25.
SNEW gave an enrichment ratio of no more than 0.25.
WGWF gave an enrichment ratio of no more than 0.25.
YQHR was tested, and the enrichment ratio was no more than 0.25.
Variant FPDD has an enrichment ratio of no more than 0.25.
In the case of VTVC, the enrichment ratio is reported as no more than 0.25.
Variant GFEL has an enrichment ratio of no more than 0.25.
ENCG was tested, and the enrichment ratio was no more than 0.25.
For SHGM, the enrichment ratio was no more than 0.25.
FAWM was tested, and the enrichment ratio was no more than 0.25.
Variant AVVQ has an enrichment ratio of 3.9.
With FWLM the enrichment ratio was no more than 0.25.
In the case of KDAV, the enrichment ratio is reported as no more than 0.25.
TNGA was tested, and the enrichment ratio was 4.37.
Variant MQQH has an enrichment ratio of no more than 0.25.
DPPC was tested, and the enrichment ratio was no more than 0.25.
In the case of NHVK, the enrichment ratio is reported as no more than 0.25.
With SPWL the enrichment ratio was no more than 0.25.
APCP gave an enrichment ratio of no more than 0.25.
EQYW showed an enrichment ratio of no more than 0.25.
In the case of SMVC, the enrichment ratio is reported as 1.02.
Work on PKVG yielded an enrichment ratio of no more than 0.25.
Work on PFAV yielded an enrichment ratio of no more than 0.25.
With TKGV the enrichment ratio was 0.818.
Work on VACN yielded an enrichment ratio of no more than 0.25.
ITDP gave an enrichment ratio of no more than 0.25.
Work on EYFT yielded an enrichment ratio of no more than 0.25.
With NQDM the enrichment ratio was no more than 0.25.
With NEPK the enrichment ratio was no more than 0.25.
VDCK gave an enrichment ratio of no more than 0.25.
MGLQ was tested, and the enrichment ratio was 16.
TAAH was tested, and the enrichment ratio was 19.2.
Work on IATV yielded an enrichment ratio of no more than 0.25.
Work on TDCH yielded an enrichment ratio of 11.9.
PCPY gave an enrichment ratio of no more than 0.25.
In the case of ESWM, the enrichment ratio is reported as no more than 0.25.
TWHM was tested, and the enrichment ratio was no more than 0.25.
KIRE gave an enrichment ratio of no more than 0.25.
For WHHH, the enrichment ratio was no more than 0.25.
Variant LVDG has an enrichment ratio of no more than 0.25.
AFLG showed an enrichment ratio of 15.7.
WVVW gave an enrichment ratio of no more than 0.25.
YTSK gave an enrichment ratio of no more than 0.25.
For IIES, the enrichment ratio was no more than 0.25.
FVKE was tested, and the enrichment ratio was no more than 0.25.
For RTFA, the enrichment ratio was no more than 0.25.
In the case of NLWT, the enrichment ratio is reported as no more than 0.25.
With TAFR the enrichment ratio was 0.781.
LEFY showed an enrichment ratio of 0.594.
MQNS was tested, and the enrichment ratio was no more than 0.25.
TTYW gave an enrichment ratio of no more than 0.25.
For VLSD, the enrichment ratio was no more than 0.25.
For PSCP, the enrichment ratio was no more than 0.25.
NWNK was tested, and the enrichment ratio was no more than 0.25.
Work on QPTD yielded an enrichment ratio of no more than 0.25.
With RWNL the enrichment ratio was no more than 0.25.
EPMG showed an enrichment ratio of no more than 0.25.
With LKNT the enrichment ratio was no more than 0.25.
Variant NLDV has an enrichment ratio of no more than 0.25.
ALHN was tested, and the enrichment ratio was no more than 0.25.
KLGA was tested, and the enrichment ratio was no more than 0.25.
In the case of IDKE, the enrichment ratio is reported as no more than 0.25.
Work on IAND yielded an enrichment ratio of no more than 0.25.
NNMY was tested, and the enrichment ratio was no more than 0.25.
NEFS gave an enrichment ratio of no more than 0.25.
RART was tested, and the enrichment ratio was no more than 0.25.
MLQY showed an enrichment ratio of no more than 0.25.
Variant RTYS has an enrichment ratio of no more than 0.25.
RWSM showed an enrichment ratio of no more than 0.25.
For ARGP, the enrichment ratio was no more than 0.25.
For DHQE, the enrichment ratio was no more than 0.25.
With YWCR the enrichment ratio was no more than 0.25.
Work on MVFV yielded an enrichment ratio of no more than 0.25.
In the case of PEHC, the enrichment ratio is reported as no more than 0.25.
WDVN was tested, and the enrichment ratio was no more than 0.25.
For FSIR, the enrichment ratio was no more than 0.25.

— a collection of fitness landscapes (doi:10.1126/science.1257360)
